From PubChem BioAssay AID488969 (Vanderbilt High Throughput Screening Facility, 2010)
Whole data set: some 110,000 compounds, median “z-score” near -0.1, cut for the highest 2% near 2. This is one part of the list.

Target: Metabotropic glutamate receptor 8 (Rattus norvegicus) (UniProt P70579)
Test: rat mGluR8 modulators via GIRK flux, primary screen, cell-based, thallium flux, HTS (AID 488969)
Conditions: HEK293 rat mGluR8, GIRK (G protein-gated inwardly rectifying potassium channel) thallium flux, FluoZin2; at 10 µM; stronger effect = higher value; submaximal glutamate (EC20) added with thallium

Chain of UniProt P70579 (P70579 whole entry, looked up): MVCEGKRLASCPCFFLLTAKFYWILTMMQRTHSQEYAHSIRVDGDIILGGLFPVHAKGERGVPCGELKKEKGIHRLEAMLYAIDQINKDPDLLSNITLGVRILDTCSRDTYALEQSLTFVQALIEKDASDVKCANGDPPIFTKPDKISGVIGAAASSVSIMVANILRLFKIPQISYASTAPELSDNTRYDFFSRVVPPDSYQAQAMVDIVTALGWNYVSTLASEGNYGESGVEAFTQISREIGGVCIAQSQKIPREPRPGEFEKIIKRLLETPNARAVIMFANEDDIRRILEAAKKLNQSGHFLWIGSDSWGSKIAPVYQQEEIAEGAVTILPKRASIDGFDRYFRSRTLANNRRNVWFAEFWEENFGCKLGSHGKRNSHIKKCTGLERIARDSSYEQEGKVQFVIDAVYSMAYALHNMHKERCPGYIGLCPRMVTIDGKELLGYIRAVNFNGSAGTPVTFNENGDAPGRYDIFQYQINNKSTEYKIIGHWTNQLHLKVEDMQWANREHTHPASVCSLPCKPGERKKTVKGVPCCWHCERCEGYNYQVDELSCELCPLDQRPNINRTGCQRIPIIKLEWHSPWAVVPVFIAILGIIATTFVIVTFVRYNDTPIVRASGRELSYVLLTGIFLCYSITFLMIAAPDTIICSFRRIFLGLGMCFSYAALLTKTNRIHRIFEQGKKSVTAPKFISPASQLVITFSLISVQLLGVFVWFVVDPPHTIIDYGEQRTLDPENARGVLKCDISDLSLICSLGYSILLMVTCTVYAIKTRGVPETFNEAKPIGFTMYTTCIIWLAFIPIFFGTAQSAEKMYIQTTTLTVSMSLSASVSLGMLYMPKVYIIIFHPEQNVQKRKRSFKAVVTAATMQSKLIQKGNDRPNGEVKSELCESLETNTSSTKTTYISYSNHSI

Compound	z-score
CC(=O)N1CCC(N(C(=O)Nc2ccc(C)c(C)c2)C2CCCC2)CC1	0.349
N#CCCN1CCn2c1nc1ccccc12	0.182
COc1ccc(OC)c(-n2c(CNC3CCN(Cc4ccccc4)CC3)nc3ccccc3c2=O)c1	-0.0341
COc1ccc(C(=O)N(CN2CCCC2=O)c2cc(C)on2)cc1OC	0.804
CC(C)(C)C(=O)NCCN1CCN(C(=O)C(C)(C)C)CC1	0.576
O=C(NC(=S)Nn1cnc2c(cnn2-c2ccccc2)c1=O)c1ccccc1	-0.101
O=C(CN1C(=O)c2ccccc2C1=O)Nc1ccc2c(c1)OCO2	-0.335
COc1ccc(/C=N/NC(=O)c2cccc([N+](=O)[O-])c2)cc1OS(=O)(=O)c1ccc(C)cc1	-0.246
O=C(c1ccc(Cl)cc1)C1CCN(C(=O)C2CC2)CC1	0.108
CC(Oc1ccc(Cl)cc1Cl)c1nc(-c2ccccn2)no1 (stereo unspecified)	0.332
COC(=O)CCSc1nccn1Cc1ccccc1	-0.124
COc1ccc(N2C(=O)C3CC(C)=C(C)CC3C2=O)c(OC)c1 (stereo unspecified)	0.0697
O=c1oc2ccccc2c(Nc2cccc3ccccc23)c1[N+](=O)[O-]	-0.861
CCOc1ccc(NC(=O)c2cc3c(C)nc4ccccc4c3o2)cc1	-0.286
O=C(CNC(=O)c1cccs1)NCC(=O)OCc1cccc(Cl)c1	0.192
CC(C)C(c1nnnn1C1CCCC1)N1c2ccccc2CC1C (stereo unspecified)	-1.44

Compound	z-score
Cc1ccc(-c2nn3c(C)nnc3s2)cc1NC(=O)C(C)C	-0.144
CCN1C(=O)/C(=C\c2ccncc2)SC1=Nc1ccc(C)c(C)c1	-0.266
COc1ccc(-c2noc(-c3cc(C)cc(C)c3)n2)cc1OC	0.138
Cc1c(C(=O)NCc2ccc3c(c2)OCO3)oc2ccc(S(=O)(=O)N3CCC(C)CC3)cc12	0.415
COc1ccc(-c2nnc(SCC(=O)NC3CCCCC3)o2)cc1OC	-0.0736
CCOC(=O)C(Cc1ccccc1)NC(C)=O (stereo unspecified)	-0.16
COc1cc(OC)cc(C(=O)NCc2nc(-c3ccccc3)no2)c1	-0.942
CCCCSc1nc2c(cnn2-c2ccc(Cl)cc2)c(=O)[nH]1	0.0662
Cn1c(=O)c2c(n3cnnc13)-c1ccccc1CC21CCCC1	0.288
Cc1cccc(N(CC(=O)Nc2c(C)n(C)n(-c3ccccc3)c2=O)S(C)(=O)=O)c1	0.355
O=S(=O)(c1ccccc1)N1c2cc(Cl)ccc2Oc2nc3ccccc3nc21	-0.294
COc1ccc2c(c1)-c1c(ssc1=S)C(C)(C)N2	-0.613
COc1cc(/C=C/C(=O)C2C(=O)C=C(C)OC2=O)cc(OC)c1O (stereo unspecified)	-0.286
Clc1ccc(CSc2nnc(/C=C/c3ccccc3)o2)c(Cl)c1	-0.0625
O=C(CSc1nnc(-c2ccco2)n1CC1CCCO1)NC1CCCC1 (stereo unspecified)	0.42
